# In EP4545563A1, “ANTIBODIES TARGETING ITGA2 AND ANTIBODY-DRUG […]” (Foreseen Technology (Beijing) Co., Ltd., priority 2022, dated 2024):
# How the values were obtained:
# HuCC-T1 = assay: ADC cancer cell killing, Cell-Titer-Glo 2.0; type: cell-based, human; conditions: result in words, summary of Table 9
# Description: (§1) Human bile duct cancer cells HuCC-T1 available from Zhejiang MeisenCTCC, human epidermal cancer cells A431 available from Procell Life Science&Technology Co.,Ltd. (Wuhan) and Chinese hamster ovary cells CHO from negative control ATCC were seeded into a 96-well plate at 2500 cells/well. It was then incubated in a 5% CO2 incubator overnight at 37°C. Half of the medium was removed from the cell plate on the next day. A 2x hIgG1 (negative control antibody, provided by Biointron), Vatelizumab, FS002-A1-vc-MMAE, FS002-A15-vc-MMAE, FS002-A36-vc-MMAE, Vatelizumab-ve-MMAE, hIgG1-vcMMAE (negative control ADC, provided by ChemPartner) was prepared with a complete culture medium, and then diluted at a 3-fold gradient with 11 specific concentration points in total. Serial dilutions of the above molecules were added to the appropriate wells, and it was then incubated in a 5% CO2 incubator for 5 days at 37°C. After the incubation, 100 uL of Cell-Titer-Glo 2.0 reagent was added to the 96-well plate. It was then well mixed on a plate shaker for 2 minutes, and finally equilibrated at room temperature for 10 minutes. Readings were taken using a microplate reader. Finally, IC50 was used to compare the biological activity of the ADC against each cell line.
# A431 = assay: ADC cancer cell killing, Cell-Titer-Glo 2.0; type: cell-based, human; conditions: result in words, summary of Table 9
# Description: as §1
# CHO = assay: ADC cell killing in negative control cells, Cell-Titer-Glo 2.0; type: cell-based, Chinese hamster
# Description: as §1
molecule,measurement,setting,value
FS002-A15-vc-MMAE: antibody-drug conjugate of antibody FS002-A15 with vc-MMAE (mc-vc-PAB-MMAE) as the linker-payload (conjugate) heavy: RLQLQESGPGLVKPSQTLSLTCTVSGGSISSGGYYWSWIRQHPGKGLEWIGYIYYSGSTYYNPSLKSRVTISVDTSKNQFSLKLSSVTAADTAVYYCARATIYGYFDYWGQGTLVTVSS[human IgG1 constant region omitted here] light: EIVLTQSPATLPLSPGERATLSCRASQSVGFYLAWYQQKPGQPPRLLFYDASKRATGIPARFSASGSGTDFTLTISGLEPEDFAVYYCQHRISWPLTFGQGTKVEVKRTVAAPSVFIFPPSDEQLKSGTASVVCLLNNFYPREAKVQWKVDNALQSGNSQESVTEQDSKDSTYSLSSTLTLSKADYEKHKVYACEVTHQGLSSPVTKSFNRGEC,killing effect on HuCC-T1,HuCC-T1,good killing effect
same,killing effect on A431,A431,good killing effect
same,IC50,"CHO; negative control cells CHO, incubated 5 days at 37°C",> 207 nM
same,killing effect on negative control cells CHO,"CHO; result in words, summary of Table 9",no killing effect
